The other results are listed elsewhere or left out. The full chains were built here from the parent and the listed change. Values near 0.05 are background.
B1: TEV protease; numbered along this chain (parent)
chain: MGESLFKGPRDYNPISSSICHLTNESDGHTTSLYGIGFGPFIITNKHLFRRNNGTLVVQSLHGVFKVKDTTTLQQHLVDGRDMIIIRMPKDFPPFPQKLKFREPQREERICLVTTNFQTKSMSSMVSDTSCTFPSGDGIFWKHWIQTKDGQCGSPLVSTRDGFIVGIHSASNFTNTNNYFTSVPKNFMELLTNQEAQQWVSGWRLNADSVLWGGHKVFMVKPEEPFQPVKEATQL

Variants of: B1
Test: raw area under fraction-flipped curve 0-4 h after induction (AUC4h, not background-subtracted), DNA-recorder readout of cleavage of the substrate (dimensionless); higher = more cleavage of the substrate by the protease variant
Settings: temperature: 34 °C; time window: 0-4 h after rhamnose induction
Description: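 In vivo DNA recorder in E. coli TOP10(DE3) ΔrhaA at 34 °C. Each TEVp single-site mutant (parent TEVp 0) is paired with a single-site variant of the 7-mer TEVs (canonical ENLYFQ|S). The substrate sits between flexible linkers in a Bxb1-sfGFP-TEVs-SsrA fusion, so cleavage stabilises Bxb1 and speeds flipping of a recombination array, read by NGS. The value is the raw area under the fraction-flipped curve over 0-4 h after rhamnose induction (AUC4h), with ≥20 reads per time point. It is not background-subtracted; inactive controls average about 0.047.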
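Further: Bxb1 expression induced with 0.2% (w/v) L-rhamnose at OD600 near 0.5, cultures sampled hourly, flipped fraction per protease–substrate barcode pair counted by paired-end Illumina sequencing.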

| Variant | area with substrate ENLYFQA | area with substrate ENLYFQC | area with substrate ENLYFQD | area with substrate ENLYFQG | area with substrate ENLYFQH | area with substrate ENLYFQI | area with substrate ENLYFQK | area with substrate ENLYFQL | area with substrate ENLYFQM | area with substrate ENLYFQN | area with substrate ENLYFQP | area with substrate ENLYFQR | area with substrate ENLYFQS | area with substrate ENLYFQT | area with substrate ENLYFQV | area with substrate ENLYFQW | area with substrate ENLYFQF | area with substrate ENLYFQQ | area with substrate ENLYFQY | area with substrate ENLYFQE |
| --- | --- | --- | --- | --- | --- | --- | --- | --- | --- | --- | --- | --- | --- | --- | --- | --- | --- | --- | --- | --- |
| K221N | 0.0968 | 0.105 | 0.0698 | 0.126 | 0.074 | 0.062 | 0.0586 | 0.0594 | 0.0776 | 0.0845 | 0.0822 | 0.0653 | 0.103 | 0.0573 | 0.0514 | 0.0606 |  |  |  |  |
| K221T | 0.0922 | 0.0971 | 0.0602 |  | 0.0754 | 0.0485 |  | 0.0532 | 0.0634 | 0.0681 | 0.061 | 0.0605 | 0.0974 | 0.0541 | 0.0448 |  |  |  |  |  |
| K221Y | 0.0967 | 0.11 |  | 0.133 |  | 0.0618 | 0.0766 | 0.0562 | 0.0746 | 0.0747 |  | 0.116 | 0.0976 | 0.0807 | 0.0561 | 0.0534 | 0.0356 | 0.0489 | 0.0659 |  |
| P222G | 0.0949 | 0.137 | 0.0569 | 0.0662 | 0.0661 | 0.0336 | 0.0536 | 0.072 | 0.0938 | 0.0772 | 0.0626 | 0.0546 | 0.103 | 0.0563 |  |  |  |  | 0.066 |  |
| P222V | 0.0946 | 0.108 | 0.0583 | 0.0871 | 0.079 | 0.0588 |  |  | 0.0749 | 0.0766 | 0.0619 | 0.0639 | 0.0923 | 0.0618 | 0.0625 | 0.0419 | 0.0806 | 0.0678 | 0.0586 | 0.0725 |
| E224M | 0.0757 | 0.0848 |  | 0.074 |  |  | 0.0618 |  | 0.0921 | 0.0764 |  | 0.0445 | 0.0946 | 0.0829 |  | 0.0645 |  | 0.0651 |  |  |
| P225R | 0.0932 | 0.115 | 0.0589 | 0.106 | 0.0695 | 0.0576 | 0.07 | 0.0648 | 0.075 | 0.0673 | 0.0534 | 0.0587 | 0.0947 | 0.0541 | 0.0578 | 0.0695 | 0.0626 |  | 0.0737 |  |
| P225T | 0.101 | 0.11 |  | 0.11 | 0.0564 | 0.048 | 0.0625 | 0.0478 | 0.0678 | 0.0586 |  | 0.0674 | 0.103 | 0.0618 | 0.0719 | 0.0603 |  |  | 0.0742 |  |
| V229L | 0.101 | 0.128 |  | 0.115 |  | 0.05 | 0.0641 | 0.0535 | 0.0926 | 0.0658 | 0.0571 | 0.0495 | 0.114 | 0.0598 |  | 0.0771 |  |  | 0.0734 | 0.0655 |
| V229Y | 0.0908 | 0.113 |  | 0.106 | 0.0625 | 0.0839 | 0.0791 | 0.0619 | 0.0878 |  | 0.066 | 0.0382 | 0.0989 | 0.0638 | 0.0329 | 0.0748 | 0.063 | 0.0679 | 0.058 |  |
| E231G | 0.114 |  | 0.0683 | 0.105 | 0.0709 |  | 0.057 | 0.0692 | 0.0887 | 0.076 | 0.0463 | 0.0576 | 0.107 | 0.0693 | 0.0898 | 0.0714 |  | 0.0651 |  |  |
| T233D | 0.114 | 0.128 | 0.0719 |  |  | 0.0536 | 0.0663 | 0.06 |  | 0.0709 |  | 0.0628 | 0.113 | 0.0675 | 0.051 | 0.0659 |  |  |  | 0.0596 |
| T233S | 0.118 | 0.117 | 0.0956 |  |  |  | 0.0627 | 0.0716 | 0.0956 |  |  |  | 0.103 |  | 0.0675 |  | 0.0685 | 0.0816 | 0.0873 |  |
| L235M | 0.0901 | 0.117 | 0.0624 | 0.0864 | 0.074 | 0.0569 |  | 0.07 | 0.0765 | 0.0658 |  | 0.0645 | 0.103 | 0.0589 | 0.0546 | 0.0744 | 0.0869 | 0.0736 | 0.0858 | 0.0804 |
| S4K |  | 0.175 |  | 0.128 | 0.112 | 0.0596 | 0.107 | 0.0754 | 0.131 | 0.105 |  | 0.0562 | 0.133 |  | 0.1 | 0.0659 |  |  |  |  |
| L5Q |  | 0.131 |  |  | 0.0839 |  | 0.0702 | 0.0696 | 0.0972 | 0.06 |  | 0.0635 | 0.118 | 0.0692 | 0.0495 | 0.0758 |  |  |  |  |
| K7A |  | 0.103 |  | 0.0964 |  | 0.0584 | 0.072 |  |  |  | 0.0704 | 0.0695 | 0.102 | 0.0984 |  | 0.0547 |  |  |  |  |
| P9A |  | 0.111 |  | 0.0965 |  | 0.0762 | 0.0661 | 0.0828 | 0.0957 |  | 0.0662 | 0.0611 | 0.0993 |  |  | 0.0708 | 0.0526 |  | 0.0609 |  |
| R10L |  | 0.109 |  |  | 0.149 |  |  | 0.0619 | 0.0797 |  |  | 0.0574 | 0.107 | 0.0724 |  | 0.0691 |  |  |  |  |
| S18P |  | 0.0878 | 0.0491 | 0.0821 | 0.0657 | 0.0486 | 0.0578 |  | 0.0691 | 0.0547 | 0.0809 | 0.0579 | 0.0754 |  |  |  |  |  | 0.063 |  |
| I19Q |  | 0.115 | 0.068 | 0.0834 |  | 0.0583 | 0.0533 |  | 0.101 | 0.084 | 0.0429 | 0.0646 | 0.104 | 0.0645 |  | 0.0631 | 0.053 | 0.0786 |  |  |
| I19T |  | 0.1 |  | 0.0912 | 0.0779 | 0.0493 | 0.0553 | 0.0539 |  |  |  | 0.0542 | 0.0961 | 0.0607 |  | 0.0597 |  | 0.0342 |  | 0.0459 |
| H21K |  | 0.109 |  | 0.0973 | 0.0838 | 0.0589 | 0.0577 | 0.0786 | 0.083 | 0.0623 | 0.0491 | 0.0581 | 0.0946 | 0.0635 | 0.0777 | 0.0741 |  |  | 0.0802 | 0.0519 |
| H21S |  | 0.104 | 0.103 | 0.0889 | 0.0744 | 0.0598 | 0.0632 | 0.0615 | 0.0901 | 0.0839 |  | 0.0596 | 0.102 | 0.0577 | 0.0573 | 0.0655 |  | 0.0673 | 0.0414 | 0.0723 |
| T23Q |  | 0.129 | 0.0706 | 0.0941 | 0.0791 | 0.0666 |  | 0.0333 | 0.0868 |  | 0.0639 | 0.0696 | 0.0935 | 0.064 | 0.0641 |  |  |  | 0.0609 |  |
